The source of these data is the supplement of paper PMC4604168 (melanoma cell lines).

Structures are written as SMILES. This is one part of the list. Single values are uncertain, as repeats are few or missing.

What all share (test): cell count relative to DMSO control; melanoma cells; higher = more viable cells
Holding throughout (details): library dose: standard library concentration; 72 h

For assay [1], the system named is G361.
For assay [2], the system named is IPC-298.
The subject of assay [3] is IST-MEL1.
Assay [4] has as its system LB2518-MEL.
The subject of assay [5] is LOXIMVI.
Assay [6] deals with MEL-HO.
In assay [7] the test system is MZ2-MEL.
For assay [8], the system named is MeWo.
Assay [9] concerns RPMI7951.
The subject of assay [10] is RVH-421.
Assay [11] deals with SkMel28.
Assay [12] concerns SkMel2.
The test system of assay [13] is SkMel30.
The test system of assay [14] is SkMel5.
In assay [15] the test system is UACC257.
Assay [16] relates to UACC62.
The subject of assay [17] is WM115.
Assay [18] deals with WM1716.
For assay [19], the system named is WM3526.
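Further: cells treated in 1,536-well plates, then fixed and DAPI-stained, with nuclei counted from automated high-throughput microscope images.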

For the compound `CCCCCCCCCCCCCCCCCCOP(=O)([O-])OC1CC[N+](C)(C)CC1` [Perifosine] + C/C(O)=C(\C#N)C(=O)Nc1cc(Br)ccc1Br [LFM-A13] (first compound 2 µM, partner dose 10 µM), the cell count in [1] stood at 113%; in assay [2], 86.4%; in assay [3] it was 105%; in assay [4], 87.3%; in assay [5], 81.1%; in [6], 93.9%. Besides, the cell count is 88% in [7]; 90.7% in assay [8]; 49.3% in [9]; 103% in assay [10]; 65% in [11]; 103% in [12]. Further, the cell count was determined as 93.6% in assay [13]; 74.1% in assay [14]; 87.1% in [15]; 84.6% in assay [16]; 83.5% in assay [17]; 79.7% in [18]. Also, the cell count in assay [19] is 96.7%.

As for `Cc1cn(-c2cc(NC(=O)c3ccc(C)c(Nc4nccc(-c5cccnc5)n4)c3)cc(C(F)(F)F)c2)cn1` [nilotinib] + C/C(O)=C(\C#N)C(=O)Nc1cc(Br)ccc1Br [LFM-A13] (first compound 1 µM, partner dose 10 µM), the cell count came out at 81.5% in assay [1]; 93.8% in assay [2]; 87% in assay [3]; 99.8% in [4]; 98.2% in assay [5]; 81.6% in assay [6]. Besides, the cell count was determined as 84.2% in [7]; 88.1% in assay [8]; 84.5% in assay [9]; 102% in [10]; 60.5% in [11]; 91.2% in assay [12]. The cell count came out at 111% in assay [13]; 126% in assay [14]; 106% in assay [15]; 69.4% in assay [16]; 105% in assay [17]; 98.4% in [18]. Also, in assay [19], the cell count was 76%.

Consider `Cn1c(=O)n(-c2ccc(C(C)(C)C#N)cc2)c2c3cc(-c4cnc5ccccc5c4)ccc3ncc21` + O=C(Oc1ccc([N+](=O)[O-])cc1)N1CCC(C(O)(c2ccc3c(c2)OCO3)c2ccc3c(c2)OCO3)CC1 [JZL184] (first compound 0.02 µM, partner dose 5 µM), for which the cell count in [1] came out at 61.3%; in assay [2] it was 78.7%; in assay [3], 98.9%; in assay [4], 90.7%; in [5] it was 105%; in assay [6] it was 84.8%. Moreover, the cell count came to 76.2% in assay [7]; 58.7% in assay [8]; 68.7% in [9]; 86.9% in assay [10]; 37.5% in assay [11]; 60.6% in [12]. Moreover, the cell count in assay [13] was 55.5%; in assay [14], 67.2%; in assay [15], 88.7%; in assay [16], 55.6%; in [17], 78.4%; in assay [18], 60.3%. In addition, in assay [19], the cell count worked out at 75.5%.

`NC(=O)c1ccc(N(C(N)=O)c2c(F)cccc2F)nc1-c1ccc(F)cc1F` + O=C(Oc1ccc([N+](=O)[O-])cc1)N1CCC(C(O)(c2ccc3c(c2)OCO3)c2ccc3c(c2)OCO3)CC1 [JZL184] (first compound 2 µM, partner dose 5 µM): the cell count in assay [1] amounted to 108%; in [2], 109%; in [3], 94.4%; in [4], 135%; in [5], 189%; in [6] it was 98.4%. Moreover, the cell count in [7] was 108%; in assay [8] it was 101%; in assay [9], 88%; in assay [10] it was 82.5%; in assay [11] it was 73.4%; in assay [12] it was 90.1%. The cell count amounted to 100% in [13]; 99.5% in assay [14]; 91.5% in [15]; 68.2% in assay [16]; 67.4% in assay [17]; 106% in assay [18]. Further, the cell count in assay [19] was found to be 81%.

For the compound `C=C(c1ccc(C(=O)O)cc1)c1cc2c(cc1C)C(C)(C)CCC2(C)C` [Bexarotene] + Cc1cc(SCc2sc(-c3ccc(C(F)(F)F)c(F)c3)nc2C)ccc1OCC(=O)O [GW0742] (first compound 10 µM, partner dose 10 µM), the cell count was 85.6% in assay [1]; 82.2% in [2]; 86.1% in [3]; 124% in [4]; 108% in assay [5]; 81.6% in [6]. Besides, the cell count in assay [7] worked out at 104%; in assay [8], 73.1%; in assay [9] it was 92.7%; in assay [10], 78.4%; in assay [11] it was 72.5%; in [12] it was 85.3%. The cell count in assay [13] was found to be 114%; in [14], 105%; in [15] it was 93.1%; in assay [16] it was 69.5%; in assay [17], 116%; in assay [18] it was 90.2%. In assay [19], this compound registered a cell count of 92.6%.

Consider `Nc1ncn([C@H]2C[C@H](O)[C@@H](CO)O2)c(=O)n1` [decitabine] + C/C(O)=C(\C#N)C(=O)Nc1cc(Br)ccc1Br [LFM-A13] (first compound 0.5 µM, partner dose 10 µM), for which the cell count in assay [1] worked out at 65.6%; in assay [2], 64.2%; in assay [3], 76.5%; in [4] it was 85.7%; in assay [5], 111%; in assay [6], 75.3%. The cell count is 88.3% in assay [7]; 71.7% in [8]; 69.3% in assay [9]; 64% in assay [10]; 69.9% in assay [11]; 91.5% in [12]. The cell count in [13] was determined as 95.6%; in assay [14] it was 93.2%; in [15], 97.4%; in [16], 80.5%; in assay [17], 66.4%; in assay [18] it was 80%. This compound also yielded a cell count in assay [19] of 89.2%.

Regarding `Cc1cc(Nc2cc(N3CCN(C)CC3)nc(/C=C/c3ccccc3)n2)n[nH]1` + Cc1cc(SCc2sc(-c3ccc(C(F)(F)F)c(F)c3)nc2C)ccc1OCC(=O)O [GW0742] (first compound 0.2 µM, partner dose 10 µM), the cell count was 101% in assay [1]; 115% in [2]; 99.7% in assay [3]; 91.2% in assay [4]; 103% in [5]; 107% in assay [6]. Moreover, the cell count in assay [7] was 105%; in assay [8] it was 87.9%; in assay [9], 103%; in assay [10], 94.3%; in assay [11], 74.8%; in assay [12], 102%. Besides, the cell count came to 109% in assay [13]; 72.4% in assay [14]; 102% in assay [15]; 73.3% in [16]; 97.8% in [17]; 74.3% in assay [18]. Besides, in assay [19], the cell count worked out at 101%.
